{"source": "patent EP4722197A1", "about": "“SOLID STATE FORMS OF (S)-2-(((S)-6,8-IFLUORO-1,2,3,4-TETRAHYDRONAPHTHALEN-2-YL)AMINO)-N-(1-(2-METHYL-1-(NEOPENTYLAMINO)PROPAN-2-YL)-1H-IMIDAZOL-4-YL)PENTANAMIDE AND USES THEREOF” (Pfizer Inc., priority 2019, dated 2021)", "key": {"[1]": {"test": "physchem"}, "[2]": {"conditions": "ambient temperature"}}, "note": "Where two headings read alike, the source gives them in different places.", "data": [{"smiles": "CCC[C@H](N[C@H]1CCc2cc(F)cc(F)c2C1)C(=O)Nc1cn(C(C)(C)CNCC(C)(C)C)cn1", "values": [{"measurement": "solubility", "setting": "[1]; acetone", "value": "< 1000", "unit": "µg/mL"}, {"measurement": "solubility", "setting": "[1]; acetone/chcl3 50/50", "value": "< 1000", "unit": "µg/mL"}, {"measurement": "solubility", "setting": "[1]; acn", "value": "< 1000", "unit": "µg/mL"}, {"measurement": "solubility", "setting": "[1]; acn/chcl3 50/50", "value": "< 1000", "unit": "µg/mL"}, {"measurement": "solubility", "setting": "[1]; acn/etoac 50/50", "value": "< 1000", "unit": "µg/mL"}, {"measurement": "solubility", "setting": "[1]; chloroform", "value": "< 1000", "unit": "µg/mL"}, {"measurement": "solubility", "setting": "[1]; dce", "value": "< 1000", "unit": "µg/mL"}, {"measurement": "solubility", "setting": "[1]; dioxane", "value": "< 1000", "unit": "µg/mL"}, {"measurement": "solubility", "setting": "[1]; dmf/acn 30/70", "value": "< 1000", "unit": "µg/mL"}, {"measurement": "solubility", "setting": "[1]; dmf/etoac 50/50", "value": "< 1000", "unit": "µg/mL"}, {"measurement": "solubility", "setting": "[1]; dmso/mtbe 10/90", "value": "< 1000", "unit": "µg/mL"}, {"measurement": "solubility", "setting": "[1]; etoac", "value": "< 1000", "unit": "µg/mL"}, {"measurement": "solubility", "setting": "[1]; etoh", "value": "< 1000", "unit": "µg/mL"}, {"measurement": "solubility", "setting": "[1]; etoh/dcm 50/50", "value": "< 1000", "unit": "µg/mL"}, {"measurement": "solubility", "setting": "[1]; heptane/chcl3 30/70", "value": "< 1000", "unit": "µg/mL"}, {"measurement": "solubility", "setting": "[1]; thf", "value": "< 1000", "unit": "µg/mL"}, {"measurement": "solubility", "setting": "[1]; thf/chcl3 25/75", "value": "< 1000", "unit": "µg/mL"}, {"measurement": "solubility", "setting": "[1]; thf/chcl3 85/15", "value": "< 1000", "unit": "µg/mL"}, {"measurement": "solubility", "setting": "[1]; toluene", "value": "< 1000", "unit": "µg/mL"}, {"measurement": "Solubility Estimate (a)", "setting": "[2]; ACN/H2O 50/50", "value": 36000, "unit": "µg/mL"}, {"measurement": "Solubility Estimate (a)", "setting": "[2]; Acetone/H2O 30/70", "value": 14000, "unit": "µg/mL"}, {"measurement": "Solubility Estimate (a)", "setting": "[2]; DMA", "value": 8000, "unit": "µg/mL"}, {"measurement": "Solubility Estimate (a)", "setting": "[2]; DMF/ACN 60/40", "value": 3000, "unit": "µg/mL"}, {"measurement": "Solubility Estimate (a)", "setting": "[2]; DMF/H2O 30/70", "value": 17000, "unit": "µg/mL"}, {"measurement": "Solubility Estimate (a)", "setting": "[2]; DMF/H2O 50/50", "value": 24000, "unit": "µg/mL"}, {"measurement": "Solubility Estimate (a)", "setting": "[2]; DMF/IPA 60/40", "value": 5000, "unit": "µg/mL"}, {"measurement": "Solubility Estimate (a)", "setting": "[2]; DMF/MIBK 80/20", "value": 4000, "unit": "µg/mL"}, {"measurement": "Solubility Estimate (a)", "setting": "[2]; DMF", "value": 18000, "unit": "µg/mL"}, {"measurement": "Solubility Estimate (a)", "setting": "[2]; DMSO", "value": 63000, "unit": "µg/mL"}, {"measurement": "Solubility Estimate (a)", "setting": "[2]; Dioxane/H2O 50/50, non-cGMP sample", "value": 19000, "unit": "µg/mL"}, {"measurement": "Solubility Estimate (a)", "setting": "[2]; EtOH/H2O 40/60", "value": 10000, "unit": "µg/mL"}, {"measurement": "Solubility Estimate (a)", "setting": "[2]; Ethylene Glycol", "value": 7000, "unit": "µg/mL"}, {"measurement": "Solubility Estimate (a)", "setting": "[2]; IPA/H2O 50/50", "value": 15000, "unit": "µg/mL"}, {"measurement": "Solubility Estimate (a)", "setting": "[2]; MEK/DMF 40/60, non-cGMP sample", "value": 2000, "unit": "µg/mL"}, {"measurement": "Solubility Estimate (a)", "setting": "[2]; MeOH/Acetone 50/50", "value": 6000, "unit": "µg/mL"}, {"measurement": "Solubility Estimate (a)", "setting": "[2]; MeOH/CHCl3 50/50", "value": 13000, "unit": "µg/mL"}, {"measurement": "Solubility Estimate (a)", "setting": "[2]; MeOH/EtOAc 50/50", "value": 2000, "unit": "µg/mL"}, {"measurement": "Solubility Estimate (a)", "setting": "[2]; MeOH/H2O 20/80", "value": 9000, "unit": "µg/mL"}, {"measurement": "Solubility Estimate (a)", "setting": "[2]; MeOH", "value": 19000, "unit": "µg/mL"}, {"measurement": "Solubility Estimate (a)", "setting": "[2]; NMP/Acetone 85/15", "value": 7000, "unit": "µg/mL"}, {"measurement": "Solubility Estimate (a)", "setting": "[2]; NMP/EtOAc 57/43", "value": 1000, "unit": "µg/mL"}, {"measurement": "Solubility Estimate (a)", "setting": "[2]; NMP", "value": 10000, "unit": "µg/mL"}, {"measurement": "Solubility Estimate (a)", "setting": "[2]; PG, non-cGMP sample", "value": 2000, "unit": "µg/mL"}, {"measurement": "Solubility Estimate (a)", "setting": "[2]; TFE (anhydrous)", "value": 10000, "unit": "µg/mL"}, {"measurement": "Solubility Estimate (a)", "setting": "[2]; TFE/MEK 70/30", "value": 2000, "unit": "µg/mL"}, {"measurement": "Solubility Estimate (a)", "setting": "[2]; THF/CHCl3 50/50", "value": 1000, "unit": "µg/mL"}, {"measurement": "Solubility Estimate (a)", "setting": "[2]; THF/H2O 80/20", "value": 24000, "unit": "µg/mL"}, {"measurement": "Solubility Estimate (a)", "setting": "[2]; THF/H2O 90/10", "value": 4000, "unit": "µg/mL"}]}]}
